# Source: the supplement of paper PMC8728848
# The list shows a part of the results.
# Experiments:
# Assay in all cases: glycan array binding signal (z-score within array); higher = stronger binding
# Conditions in all cases: glycan notation: IUPAC condensed, linker removed
# [1] = target: Fuc(a1-2)[Gal(a1-3)]Gal(b1-4)GlcNAc(b1-2)Man(a1-3)[Fuc(a1-2)[Gal(a1-3)]Gal(b1-4)GlcNAc(b1-2)Man(a1-6)]Man(b1-4)GlcNAc(b1-4)GlcNAc
# Outline: (§1)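 Glycan array data came from 3228 arrays in the Consortium for Functional Glycomics database, and only arrays with an available protein sequence were kept. Glycan names were put into IUPAC-condensed notation, and columns mapping to the same glycan were averaged. The binding signal is a within-array Z-score, averaged across arrays of one protein sequence run at different concentrations or buffers and across linkers. A negative Z-score can be read as non-binding.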
# [2] = target: Fuc(a1-2)[Gal(a1-3)]Gal(b1-4)[Fuc(a1-3)]GlcNAc
# Outline: as §1
# [3] = target: Fuc(a1-2)[Gal(a1-4)]Gal(b1-4)GlcNAc
# Outline: as §1
# [4] = target: Fuc(a1-2)[GalNAc(a1-3)]Gal
# Outline: as §1
# [5] = target: Fuc(a1-2)[GalNAc(a1-3)]Gal(b1-3)GlcNAc
# Outline: as §1
# [6] = target: Fuc(a1-2)[GalNAc(a1-3)]Gal(b1-3)GlcNAc(b1-2)Man(a1-3)[Fuc(a1-2)[GalNAc(a1-3)]Gal(b1-3)GlcNAc(b1-2)Man(a1-6)]Man(b1-4)GlcNAc(b1-4)GlcNAc
# Outline: as §1
# [7] = target: Fuc(a1-2)[GalNAc(a1-3)]Gal(b1-4)Glc
# Outline: as §1
# [8] = target: Fuc(a1-2)[GalNAc(a1-3)]Gal(b1-4)GlcNAc
# Outline: as §1
# [9] = target: Fuc(a1-2)[GalNAc(a1-3)]Gal(b1-4)GlcNAc(b1-2)Man(a1-3)[GalNAc(a1-3)[Fuc(a1-2)]Gal(b1-4)GlcNAc(b1-2)Man(a1-6)]Man(b1-4)GlcNAc(b1-4)GlcNAc
# Outline: as §1
# [10] = target: Fuc(a1-2)[GalNAc(a1-3)]Gal(b1-4)GlcNAc(b1-3)Gal(b1-4)GlcNAc
# Outline: as §1
# [11] = target: Fuc(a1-2)[GalNAc(a1-3)]Gal(b1-4)GlcNAc(b1-3)Gal(b1-4)GlcNAc(b1-3)Gal(b1-4)GlcNAc
# Outline: as §1
# [12] = target: Fuc(a1-2)[GalNAc(a1-3)]Gal(b1-4)[Fuc(a1-3)]GlcNAc
# Outline: as §1
# [13] = target: Fuc(a1-2)[GalNAc(a1-4)]Gal(b1-4)GlcNAc
# Outline: as §1
# [14] = target: Fuc(a1-2)[GalNAc(b1-3)]Gal
# Outline: as §1
# Fuc(a1-3)GlcNAc = target: Fuc(a1-3)GlcNAc
# Outline: as §1
# [15] = target: Fuc(a1-3)[Gal(b1-4)]Glc6S
# Outline: as §1
# [16] = target: Fuc(a1-3)[Gal(b1-4)]GlcNAc
# Outline: as §1
# [17] = target: Fuc(a1-3)[Gal(b1-4)]GlcNAc(b1-2)Man(a1-3)[Fuc(a1-3)[Gal(b1-4)]GlcNAc(b1-2)Man(a1-6)]Man(b1-4)GlcNAc(b1-4)GlcNAc
# Outline: as §1
# [18] = target: Fuc(a1-3)[Gal(b1-4)]GlcNAc(b1-2)Man(a1-6)[Gal(b1-4)GlcNAc(b1-2)Man(a1-3)]Man(b1-4)GlcNAc(b1-4)GlcNAc
# Outline: as §1
# [19] = target: Fuc(a1-3)[Gal(b1-4)]GlcNAc(b1-3)Gal(b1-3)[Fuc(a1-4)]GlcNAc
# Outline: as §1
# [20] = target: Fuc(a1-3)[Gal(b1-4)]GlcNAc(b1-4)Gal(b1-4)[Fuc(a1-3)]GlcNAc
# Outline: as §1
# [21] = target: Fuc(a1-3)[Gal(b1-4)]GlcNAc(b1-4)Gal(b1-4)[Fuc(a1-3)]GlcNAc(b1-4)Gal(b1-4)[Fuc(a1-3)]GlcNAc
# Outline: as §1
# [22] = target: Fuc(a1-3)[Gal(b1-4)]GlcNAc6S
# Outline: as §1
# [23] = target: Fuc(a1-3)[Gal3S(b1-4)]Glc6S
# Outline: as §1
# [24] = target: Fuc(a1-3)[Gal3S(b1-4)]GlcNAc
# Outline: as §1
# [25] = target: Fuc(a1-3)[Gal3S(b1-4)]GlcNAc6S
# Outline: as §1
# [26] = target: Fuc(a1-3)[GalNAc(b1-4)]GlcNAc
# Outline: as §1
# [27] = target: Fuc(a1-3)[Neu5Ac(a2-3)]Gal(b1-4)GlcNAc(b1-3)GalNAc
# Outline: as §1
# Fuc(a1-4)GlcNAc = target: Fuc(a1-4)GlcNAc
# Outline: as §1
# Fuc(b1-3)GlcNAc = target: Fuc(b1-3)GlcNAc
# Outline: as §1
binder,measurement,setting,value
"GALT1 115 D492A (Arabidopsis thaliana), Q8L7F9 (protein) DPMRGSHHHHHHGMASMTGGQQMGRDLYDDDDKSRLQKPYITAAASVVVTPNTTLPMEWLRITLPDFMKEARNTQEAISGDDIAVVSGLFVEQNVSKEEREPLLTWNRLESLVDNAQSLVNGVDAIKEAGIVWESLVSAVEAKKLVDVNENQTRKGKEELCPQFLSKMNATEADGSSLKLQIPCGLTQGSSITVIGIPDGLVGSFRIDLTGQPLPGEPDPPIIVHYNVRLLGDKSTEDPVIVQNSWTASQDWGAEERCPKFDPDMNKKVDDLDECNKMVGGEINRTSSTSLQSNTSRGVPVAREASKHEKYFPFKQGFLSVATLRVGTEGMQMTVDGKHITSFAFRDTLEPWLVSEIRITGDFRLISILASGLPTSEESEHVVDLEALKSPTLSPLRPLDLVIGVFSTANNFKRRMAVRRTWMQYDDVRSGRVAVRFFVGLHKSPLVNLELWNEARTYGDVQLMPFVDYYSLISWKTLAICIFGTEVDSAKFIMKTDDAAFVRVDEVLLSLSMTNNTRGLIYGLINSDSQPIRNPDSKWYISYEEWPEEKYPPWAHGPGYIVSRDIAESVGKLFKEGNLKMFKLEDVAMGIWIAELTKHGLEPHYENDGRIISDGCKDGYVVAHYQSPAEMTCLWRKYQETKRSLCCREW",glycan array binding signal (z-score),[1],-0.005
same,glycan array binding signal (z-score),[2],-0.252
same,glycan array binding signal (z-score),[3],0.104
same,glycan array binding signal (z-score),[4],-0.352
same,glycan array binding signal (z-score),[5],0.58
same,glycan array binding signal (z-score),[6],-0.087
same,glycan array binding signal (z-score),[7],-0.201
same,glycan array binding signal (z-score),[8],-0.228
same,glycan array binding signal (z-score),[9],-0.265
same,glycan array binding signal (z-score),[10],-0.282
same,glycan array binding signal (z-score),[11],0.475
same,glycan array binding signal (z-score),[12],0.043
same,glycan array binding signal (z-score),[13],-0.139
same,glycan array binding signal (z-score),[14],-0.27
same,glycan array binding signal (z-score),Fuc(a1-3)GlcNAc,-0.403
same,glycan array binding signal (z-score),[15],-0.395
same,glycan array binding signal (z-score),[16],0.29
same,glycan array binding signal (z-score),[17],-0.034
same,glycan array binding signal (z-score),[18],0.456
same,glycan array binding signal (z-score),[19],-0.298
same,glycan array binding signal (z-score),[20],-0.107
same,glycan array binding signal (z-score),[21],-0.408
same,glycan array binding signal (z-score),[22],-0.228
same,glycan array binding signal (z-score),[23],-0.311
same,glycan array binding signal (z-score),[24],0.542
same,glycan array binding signal (z-score),[25],0.448
same,glycan array binding signal (z-score),[26],-0.21
same,glycan array binding signal (z-score),[27],-0.012
same,glycan array binding signal (z-score),Fuc(a1-4)GlcNAc,-0.25
same,glycan array binding signal (z-score),Fuc(b1-3)GlcNAc,-0.007
